Drawing on PubChem BioAssay (NCI), this text covers GI50 and TGI for five molecules.

Where “and” joins values, the source holds several entries; their conditions need not be identical. Equal values may be shown once.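 Exposure lasted 48 hours, with cells grown in 96-well plates and compounds tested at five concentrations. GI50 is the concentration that inhibits growth by half. TGI is the concentration that stops growth completely.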

For the experiment, the system named is NCI-H322M lung. As to the kind of experiment: DTP human tumour cell line panel, 48 h.
In the case of `CCCCCc1ccc(S(=O)(=O)Nc2cccc(-c3csc(NC(=O)CCCCCN4CCN(C)CC4)n3)c2)cc1`, the GI50 is 2140 nM and the TGI came to 5.18 µM.
The matching figures for `Oc1ccc(CSc2nnc(-c3cnccn3)n2-c2ccccc2)c2cccnc12`: 1820 nM and more than 100 µM.
Taken in the same sequence, the figures for `CN(C)CCNC(=O)c1ccc(-c2nc3ccc4[nH]ncc4c3c3c2CCC3)cc1` were 741 nM and 5.14 µM.
For the molecule `COc1cc(O)c2c(c1)/C=C/C[C@H](O)[C@H](O)C(=O)/C=C\C[C@H](C)OC2=O`, the GI50 was 6650 nM and 15300 nM; the TGI was 27.3 µM and 64.7 µM.
On to `COc1cc(/C=N/n2cnc3oc(-c4ccccc4)cc3c2=N)cc(CN2CCCC2)c1O`, for which the GI50 is 1830 nM and the TGI is 3.68 µM.

What is called GI50 is the concentration that inhibits growth by half. In general, TGI refers to the concentration at which net growth stops. Low readings indicate more potent growth arrest, high ones less potent growth arrest.
